Assay results from a collection of fitness landscapes (doi:10.1016/j.celrep.2020.107928).
Whole data set: some 81,000 sequences, median “one-hybrid fitness for binding NBS DNA” near -0.1, cut for the highest 2% near 0.36. Some of the results follow.

B1: Caulobacter ParB omega fusion; a variant is named by its letters at X, in order, B8GW30 (parent)
chain: MESVVVGEPGMSEGRRGLGRGLSALLGEVDAAPAQAPGEQLGGSREAPIEILQRNPDQPRRTFREEDLEDLSNSIREKGVLQPILVRPSPDTAGEYQIVAGERAWRAAQRAGLKTVPIMVRELDDLAVLEIGIIENVQRADLNVLEEALSYKVLMEKFERTQENIAQTIGKSXSHVANXMRLLXLPDEVQSYLVSGELTAXHARAIAAAADPVALAKQIIEGGLSVRETEALARKAPNLSAGKSKGGRPPRVKDTDTQALESDLSSVLGLDVSIDHRGSTGTLTITYATLEQLDDLCNRLTRGI

Variants of: B1
Test: one-hybrid fitness for binding NBS DNA (the Noc-binding site; scaled: cognate 1, non-cognate 0); higher = stronger binding
Conditions: with NBS DNA site
Outline: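 The reporter was HIS3, with the binding site 19 bp from the promoter, in E. coli USO used for bacterial one-hybrid selection of Caulobacter ParB libraries with four specificity codons randomised. Growth was on M9 lacking histidine, with 0.1 mM IPTG and 5 mM 3-AT, for 48 hours at 37°C. Illumina sequencing covered plasmids before and after selection; three replicate libraries were pooled and variants with under 10 reads dropped. A fitness score is the log change in variant-to-wild-type read ratio, rescaled to the cognate and non-cognate references.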

Variant | one-hybrid fitness for binding NBS DNA
CEES | ≤ 0.2
FWPV | ≤ 0.2
RSQA | ≤ 0.2
RIAC | ≤ 0.2
LRNN | ≤ 0.2
HMDC | ≤ 0.2
RSCY | ≤ 0.2
VLRE | ≤ 0.2
KCSC | ≤ 0.2
TVYP | ≤ 0.2
TWLF | ≤ 0.2
GNRG | ≤ 0.2
HTPA | ≤ 0.2
NTSS | ≤ 0.2
PKRV | ≤ 0.2
DNGY | ≤ 0.2
CDGR | ≤ 0.2
DVII | ≤ 0.2
RSCE | ≤ 0.2
ITQR | ≤ 0.2
QPQC | ≤ 0.2
TRFT | 0.207
LASM | ≤ 0.2
GYSL | ≤ 0.2
SAKG | ≤ 0.2

Variant | one-hybrid fitness for binding NBS DNA
LHDS | ≤ 0.2
NPNW | ≤ 0.2
PHRA | ≤ 0.2
RPRM | ≤ 0.2
CSYR | ≤ 0.2
LTAC | ≤ 0.2
ALTE | ≤ 0.2
NYVR | ≤ 0.2
EPKA | ≤ 0.2
QERP | ≤ 0.2
WSTT | ≤ 0.2
VSRS | ≤ 0.2
LYAK | ≤ 0.2
VLDI | ≤ 0.2
SKRL | ≤ 0.2
FKAW | ≤ 0.2
ALVW | ≤ 0.2
SGIS | ≤ 0.2
GKER | ≤ 0.2
STPV | ≤ 0.2
INMS | ≤ 0.2
RIRS | 0.56
HNPR | ≤ 0.2
PDKP | ≤ 0.2
REEM | ≤ 0.2

Variant | one-hybrid fitness for binding NBS DNA
QAWS | 0.216
EMST | ≤ 0.2
FGRV | ≤ 0.2
CLDA | ≤ 0.2
DLIA | ≤ 0.2
HTGE | ≤ 0.2
TPTL | ≤ 0.2
HYKR | ≤ 0.2
VETT | ≤ 0.2
LRHG | ≤ 0.2
DKER | ≤ 0.2
VKGS | ≤ 0.2
HFTP | ≤ 0.2
RNAT | ≤ 0.2
KLAD | ≤ 0.2
RLRT | 0.657
HPNC | ≤ 0.2
ACVH | ≤ 0.2
ENEG | ≤ 0.2
TLRK | ≤ 0.2
ESTL | ≤ 0.2
QDAQ | ≤ 0.2
RHDD | ≤ 0.2
YKNF | ≤ 0.2
TSEH | ≤ 0.2

Variant | one-hybrid fitness for binding NBS DNA
RMQQ | ≤ 0.2
HHRS | ≤ 0.2
NDGS | ≤ 0.2
NWAF | ≤ 0.2
MWCC | ≤ 0.2
DTKR | 0.321
TVMK | ≤ 0.2
TGCV | ≤ 0.2
TWHR | ≤ 0.2
ILLI | ≤ 0.2
TCRK | ≤ 0.2
GFTI | ≤ 0.2
RLRW | ≤ 0.2
IDRG | ≤ 0.2
RHTK | ≤ 0.2
KMKI | ≤ 0.2
GVAN | ≤ 0.2
NYHF | ≤ 0.2
HGAM | ≤ 0.2
RSPG | ≤ 0.2
RSTD | ≤ 0.2
RKKY | 0.38
ESED | ≤ 0.2
HPSK | ≤ 0.2
RYNY | ≤ 0.2

Variant | one-hybrid fitness for binding NBS DNA
SWAC | ≤ 0.2
NRNI | ≤ 0.2
ERTT | ≤ 0.2
RRCG | 0.296
MMCS | ≤ 0.2
IVET | ≤ 0.2
YDYR | ≤ 0.2
NSHT | ≤ 0.2
CGHS | ≤ 0.2
NVHF | ≤ 0.2
AVHP | ≤ 0.2
AYHS | ≤ 0.2
VKLK | ≤ 0.2
ACSL | ≤ 0.2
DCGT | ≤ 0.2
LKYS | ≤ 0.2
YTAE | ≤ 0.2
VCRR | 0.246
VPPK | ≤ 0.2
WPQD | ≤ 0.2
DRSS | ≤ 0.2
HNSS | ≤ 0.2
DCPF | ≤ 0.2
LDSL | ≤ 0.2
TLGC | ≤ 0.2

Variant | one-hybrid fitness for binding NBS DNA
SYSR | ≤ 0.2
KQRR | 0.416
RQPY | ≤ 0.2
ITAV | ≤ 0.2
CSGA | ≤ 0.2
GHSC | ≤ 0.2
IDTS | ≤ 0.2
IRCN | ≤ 0.2
QTHD | ≤ 0.2
KRKK | 0.26
EWSS | ≤ 0.2
PPPE | ≤ 0.2
AWRR | ≤ 0.2
TILI | ≤ 0.2
RKDI | ≤ 0.2
HGDT | ≤ 0.2
CRNY | ≤ 0.2
WMRG | ≤ 0.2
LYTM | ≤ 0.2
DAID | ≤ 0.2
SKQS | ≤ 0.2
LVMV | ≤ 0.2
TASS | ≤ 0.2
HSPE | ≤ 0.2
QNCS | ≤ 0.2

Variant | one-hybrid fitness for binding NBS DNA
AITY | ≤ 0.2
EQAA | ≤ 0.2
RAYQ | ≤ 0.2
QYMD | ≤ 0.2
NTFT | ≤ 0.2
KSAV | ≤ 0.2
YKCS | ≤ 0.2
VTQY | ≤ 0.2
CFPR | ≤ 0.2
WADM | ≤ 0.2
FLRS | ≤ 0.2
TYVL | ≤ 0.2
EHLG | ≤ 0.2
LRAE | ≤ 0.2
KYRP | ≤ 0.2
RMII | ≤ 0.2
HPAE | ≤ 0.2
REWS | ≤ 0.2
PPSK | ≤ 0.2
QLDV | ≤ 0.2
RMCL | ≤ 0.2
PVTV | ≤ 0.2
STHK | ≤ 0.2
QVSY | ≤ 0.2
PNPN | ≤ 0.2

Variant | one-hybrid fitness for binding NBS DNA
RTGQ | ≤ 0.2
SICV | ≤ 0.2
QKKC | 0.385
ASKV | ≤ 0.2
LWWR | ≤ 0.2
FVNS | ≤ 0.2
DVRI | ≤ 0.2
HIDW | ≤ 0.2
FTPR | ≤ 0.2
GWAK | 0.264
LLQG | ≤ 0.2
DPYG | ≤ 0.2
RQKN | 0.214
SMHT | ≤ 0.2
PLSG | ≤ 0.2
RYAQ | ≤ 0.2
PRNH | ≤ 0.2
AGPL | ≤ 0.2
CRRA | ≤ 0.2
MQHL | ≤ 0.2
